Data: article PMC4336329 (PLoS ONE, 2015)
About 2,200 (0.71%) of roughly 310,000 compounds showed an effect of 50% or more. The effect is printed as a negative number. The list shows a part of the results.

What follows are molecules tested against human ether-à-go-go-related gene (hERG) potassium channel (human, UniProt Q12809) (assay: primary screen, population patch clamp on CHO cells stably expressing hERG).
human ether-à-go-go-related gene (hERG) potassium channel, sequence (Q12809 whole entry, looked up): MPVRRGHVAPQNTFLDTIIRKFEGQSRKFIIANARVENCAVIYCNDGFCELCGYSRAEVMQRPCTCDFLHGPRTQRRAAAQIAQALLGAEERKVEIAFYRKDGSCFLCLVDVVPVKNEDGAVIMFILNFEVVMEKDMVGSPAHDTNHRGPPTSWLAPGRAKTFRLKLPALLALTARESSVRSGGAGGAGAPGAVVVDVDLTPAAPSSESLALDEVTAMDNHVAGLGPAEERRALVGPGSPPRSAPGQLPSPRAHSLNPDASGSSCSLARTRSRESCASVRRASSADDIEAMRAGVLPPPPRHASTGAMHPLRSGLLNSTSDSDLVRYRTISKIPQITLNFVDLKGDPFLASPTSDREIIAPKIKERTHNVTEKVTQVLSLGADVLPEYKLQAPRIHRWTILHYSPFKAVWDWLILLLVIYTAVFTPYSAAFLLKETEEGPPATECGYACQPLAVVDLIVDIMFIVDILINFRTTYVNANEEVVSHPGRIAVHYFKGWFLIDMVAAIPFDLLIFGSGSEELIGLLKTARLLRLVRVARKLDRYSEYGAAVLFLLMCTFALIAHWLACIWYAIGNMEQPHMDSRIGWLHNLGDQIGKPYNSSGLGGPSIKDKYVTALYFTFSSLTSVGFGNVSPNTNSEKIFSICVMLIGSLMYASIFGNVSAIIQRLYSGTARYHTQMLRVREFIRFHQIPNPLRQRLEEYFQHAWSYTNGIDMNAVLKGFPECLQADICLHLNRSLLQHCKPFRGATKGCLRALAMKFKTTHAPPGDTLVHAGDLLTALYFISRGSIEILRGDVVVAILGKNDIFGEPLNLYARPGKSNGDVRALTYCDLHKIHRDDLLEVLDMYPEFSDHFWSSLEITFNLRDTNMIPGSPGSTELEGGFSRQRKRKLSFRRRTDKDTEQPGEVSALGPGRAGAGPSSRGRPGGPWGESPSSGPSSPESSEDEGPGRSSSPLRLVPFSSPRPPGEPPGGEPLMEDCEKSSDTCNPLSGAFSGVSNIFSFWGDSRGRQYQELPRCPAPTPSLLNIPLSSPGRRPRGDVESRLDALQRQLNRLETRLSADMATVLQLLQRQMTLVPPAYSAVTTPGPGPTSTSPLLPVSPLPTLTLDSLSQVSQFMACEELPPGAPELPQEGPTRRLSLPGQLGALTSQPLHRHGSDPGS

| Compound | hERG current change (%, negative = inhibition) at 1uM [%] |
| --- | --- |
| CC(=O)c1sc(NC(=O)c2cccc(C)c2)nc1C | 14.7 |
| COC(=O)c1c[nH]n2c(=O)c(Cc3ccc(F)cc3Cl)c(C)nc12 | 7.15 |
| Nc1nnnn1/N=C/c1ccc(N2CCCCC2)c([N+](=O)[O-])c1 | 14.8 |
| CCOC(=O)C1=C(COC(=O)COc2ccc(C(C)=O)cc2)NC(=O)NC1C (stereo not drawn) | 5.59 |
| CCOC(=O)/C(C#N)=C/c1cn(CCC(=O)O)nc1-c1ccc(F)cc1 | 8.06 |
| CN(Cc1ccc(C(F)(F)F)cc1)C(=O)c1ccc2ccccc2n1 | 12.5 |
| O=C(O)Cc1c(O)ccc2ccccc12 | 11.7 |
| CN(Cc1ccc(F)cc1)C(=O)CNC(=O)c1cccs1 | 20.8 |
| CC(=O)Nc1ccc(NC(=O)C(Sc2ccccc2)c2ccccc2)cc1 (stereo not drawn) | 18.7 |
| CC(C)c1ccc(NC(=O)NCc2ccccn2)cc1 | 9.47 |
| N#Cc1c(NC(=O)C2CC(Cl)=CCC2C(=O)O)sc2c1CCCCC2 (stereo not drawn) | 2.73 |
| S=C1NCN(Cc2ccccc2)CN1 | 11.8 |
| COc1ccc(C(=O)COC(=O)c2ccc(NC(C)=O)cc2)cc1[N+](=O)[O-] | -1.33 |
| c1ccc(C(Cc2nc(-c3cccnc3)no2)c2ccccc2)cc1 | 13.2 |
| CC1CC2(C)CC(C)C1(COC(=O)Nc1ccccc1)CO2 (stereo not drawn) | 12.6 |
| Cc1c(C(=O)Nc2cccc([N+](=O)[O-])c2)cnn1-c1ccccc1 | 8.38 |
| COc1cc(OC)cc(C(=O)NC(=S)N2CCCCCC2)c1 | 15.5 |
| CCOC(=O)C1CCCN(Cc2nc(C3CC3)no2)C1 (stereo not drawn) | 14.8 |
| O=C(COC(=O)c1ccccc1O)Nc1ccc(S(=O)(=O)N2CCCCC2)cc1 | 10.7 |

| Compound | hERG current change (%, negative = inhibition) at 1uM [%] |
| --- | --- |
| O=C(c1cc(C2CC2)nn1-c1ccccc1)N1CCN(Cc2ccc(Cl)cc2)CC1 | -6.69 |
| N#Cc1ccc(-c2ccc(OCC(=O)NCCc3ccccc3)cc2)cc1 | 14.3 |
| CNc1ccc(Br)cc(C(=O)/C=C/c2cccc(OC)c2OC)c1=O | -10.7 |
| CCOC(=O)c1c(NC(=O)CN2CCCc3ccccc32)sc(C(C)=O)c1C | 13.8 |
| CN(C)c1ccc(/C=N/NC(=O)CCCCCNC(=O)c2ccccc2)cc1 | 14 |
| COc1ccccc1NC(=O)COC(=O)c1ccc([N+](=O)[O-])s1 | 7.58 |
| NC(=O)c1ccsc1NC(=O)COC(=O)c1cc(Cl)ccc1O | 2.98 |
| CCOC(=O)C1CCN(c2cc(=O)n(-c3ccc(OC)cc3)c(=O)[nH]2)CC1 | 10.3 |
| Cc1ccc(NC(=O)/C(=C/c2cccs2)NC(=O)c2ccco2)c(C)c1 | -0.908 |
| O=C(c1cc(-c2ccco2)on1)N1CCCc2ccccc21 | 13.7 |
| O=C(O)c1ccccc1OC(=O)C12CC3CC(CC(C3)C1)C2 | 19.2 |
| CCCCc1ccc(-c2ccc(C)cc2O)nc1 | -3.35 |
| O=C(Cn1cc2c(n1)CCCC2)NCCc1ccccc1 | 8.55 |
| COc1ccc(NC(=O)CCOc2ccc(C)cc2)cc1S(=O)(=O)N1CCCCC1 | -8.59 |
| Cc1ccsc1C(=O)Nc1nc2ccccc2[nH]1 | 6.11 |
| O=C(N/N=C/c1ccccc1C(=O)O)C(=O)N1CCCCC1 | 15.7 |
| CC(=O)Nc1ccc(C(=O)OCC(=O)c2ccc(S(=O)(=O)N3CCCCC3)cc2)cc1 | 14.2 |
| COc1cc2c(-c3ccc(O)cc3)nc3c(c(C)nn3-c3ccccc3)c2cc1OC | 14.6 |
| CCN1C(=NCCc2cccs2)N[C@@H](c2cccs2)C(C(=O)OC)=C1C | -13.7 |

| Compound | hERG current change (%, negative = inhibition) at 1uM [%] |
| --- | --- |
| Cc1ccc2cc(C#N)c(NCc3ccco3)nc2c1 | 11.1 |
| COc1ccc(/C=N/NC(=O)CCSc2nc3ccccc3s2)cc1OC | 8.32 |
| O=C(COC(=O)c1ccc2ncsc2c1)NC(=O)c1ccccc1 | 15 |
| CN(C(=O)COC(=O)c1ccc([N+](=O)[O-])cc1N)c1ccccc1 | -0.885 |
| c1ccc(CSc2nc3ccccc3[nH]2)cc1 | 9.75 |
| CC1Cc2cc(/C(O)=C3/C(=O)C(=O)N(CCN4CCOCC4)C3c3ccc(C(C)C)cc3)ccc2O1 (stereo not drawn) | 13.8 |
| CCOc1ccc(CN(C)CC(=O)c2c(N)n(Cc3ccccc3)c(=O)n(CC)c2=O)cc1OC | -82.5 |
| COc1cccc2cc(C(=O)Oc3ccccc3)c(=O)oc12 | 11.8 |
| C[C@H](NC(=O)[C@@H]1Cc2ccccc2CN1)C(=O)Nc1ccc2c(c1)OCCO2 | 20.4 |
| Cn1c(CNC(=O)c2cccs2)nnc1SCC(=O)Nc1ccccc1 | 13.3 |
| Cc1ccccc1NC(=O)CSc1nc(-c2ccccc2)cc(=O)[nH]1 | 15 |
| COc1cc(CNC(=O)C2CCC(=O)N(C3CCCCCC3)C2)cc(OC)c1 (stereo not drawn) | 9.26 |
| Cc1cccc(C)c1NC(=O)CSc1nnc([C@@H]2CCCN2C(=O)OC(C)(C)C)o1 | 2 |
| COC(=O)c1ccccc1NC(=O)CNc1ccc(F)c(S(=O)(=O)N2CCOCC2)c1 | -4.51 |
| Clc1cccc(CN2CCCCCC2)c1Cl | 9.57 |
| Cc1ccc(C(=O)NCCC(=O)NCc2cc(=O)n(C)c(=O)n2C)cc1 | 3.2 |
| Cc1oc(C(=O)O)cc1COc1cccc2cccnc12 | -5.92 |
| COC(=O)c1ccc(NC(=O)CSc2nnc(-c3cccnc3)o2)cc1 | -6.83 |
| CCNc1nn2ccccc2c1/C=C(\C#N)C(=O)OCC | 12.6 |
